# Measurements: paper PMC9911399, “Two distinct binding modes provide the RNA-binding protein RbFox with extraordinary sequence specificity”
# Residue numbers refer to the chain shown, from its start. Some of the results follow.
# T1: RBFOX1 RRM RbFoxmut (Fox-RRM*) (Homo sapiens, UniProt Q9NWB1 109-208, R118D;E147R;N151S;E152T)
# T1 sequence: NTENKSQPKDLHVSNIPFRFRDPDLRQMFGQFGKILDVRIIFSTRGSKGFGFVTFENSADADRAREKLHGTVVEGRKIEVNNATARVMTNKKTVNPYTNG
# B1: GAUGCUU (DNA:RNA)
# RNA: GGGAGACCGGAAUUCAGAUUGUCCGAUGCUUUUAAAUCCCGUCGUAGCCACCA
# DNA 1: CAATCTGAATTCCGGTCTCCC
# DNA 2: TGGTGGCTACGACGGGATT
# B2: ACCUGGC (DNA:RNA)
# RNA: GGGAGACCGGAAUUCAGAUUGUCCACCUGGCUUAAAUCCCGUCGUAGCCACCA
# DNA 1: CAATCTGAATTCCGGTCTCCC
# DNA 2: TGGTGGCTACGACGGGATT
# B3: GUACGAC (DNA:RNA)
# RNA: B2 RNA with A25G, C26U, C27A, U28C, G30A
# DNA 1: CAATCTGAATTCCGGTCTCCC
# DNA 2: TGGTGGCTACGACGGGATT
# B4: CUUGGCG (DNA:RNA)
# RNA: B1 RNA with G25C, A26U, C29G, U30C, U31G
# DNA 1: CAATCTGAATTCCGGTCTCCC
# DNA 2: TGGTGGCTACGACGGGATT
# B5: GAACAUC (DNA:RNA)
# RNA: B1 RNA with U27A, G28C, C29A, U31C
# DNA 1: CAATCTGAATTCCGGTCTCCC
# DNA 2: TGGTGGCTACGACGGGATT
# B6: ACGUUGU (DNA:RNA)
# RNA: B2 RNA with C27G, G29U, C31U
# DNA 1: CAATCTGAATTCCGGTCTCCC
# DNA 2: TGGTGGCTACGACGGGATT
# B7: UAAGAAU (DNA:RNA)
# RNA: B1 RNA with G25U, U27A, C29A, U30A
# DNA 1: CAATCTGAATTCCGGTCTCCC
# DNA 2: TGGTGGCTACGACGGGATT
# B8: GACGCAG (DNA:RNA)
# RNA: B1 RNA with U27C, U30A, U31G
# DNA 1: CAATCTGAATTCCGGTCTCCC
# DNA 2: TGGTGGCTACGACGGGATT
# B9: AUUCCAU (DNA:RNA)
# RNA: B1 RNA with G25A, A26U, G28C, U30A
# DNA 1: CAATCTGAATTCCGGTCTCCC
# DNA 2: TGGTGGCTACGACGGGATT
# B10: AGUAGAC (DNA:RNA)
# RNA: B2 RNA with C26G, C27U, U28A, G30A
# DNA 1: CAATCTGAATTCCGGTCTCCC
# DNA 2: TGGTGGCTACGACGGGATT
# B11: AUCGAUC (DNA:RNA)
# RNA: B2 RNA with C26U, U28G, G29A, G30U
# DNA 1: CAATCTGAATTCCGGTCTCCC
# DNA 2: TGGTGGCTACGACGGGATT
# B12: CCGACAC (DNA:RNA)
# RNA: B2 RNA with A25C, C27G, U28A, G29C, G30A
# DNA 1: CAATCTGAATTCCGGTCTCCC
# DNA 2: TGGTGGCTACGACGGGATT
# B13: ACGAGCA (DNA:RNA)
# RNA: B2 RNA with C27G, U28A, G30C, C31A
# DNA 1: CAATCTGAATTCCGGTCTCCC
# DNA 2: TGGTGGCTACGACGGGATT
# B14: GAACAUG (DNA:RNA)
# RNA: B1 RNA with U27A, G28C, C29A, U31G
# DNA 1: CAATCTGAATTCCGGTCTCCC
# DNA 2: TGGTGGCTACGACGGGATT
# B15: GGAGCUA (DNA:RNA)
# RNA: B1 RNA with A26G, U27A, U31A
# DNA 1: CAATCTGAATTCCGGTCTCCC
# DNA 2: TGGTGGCTACGACGGGATT
# B16: CCUUGCG (DNA:RNA)
# RNA: B2 RNA with A25C, C27U, G30C, C31G
# DNA 1: CAATCTGAATTCCGGTCTCCC
# DNA 2: TGGTGGCTACGACGGGATT
# B17: CAGUUCG (DNA:RNA)
# RNA: B2 RNA with A25C, C26A, C27G, G29U, G30C, C31G
# DNA 1: CAATCTGAATTCCGGTCTCCC
# DNA 2: TGGTGGCTACGACGGGATT
# B18: AAAACGU (DNA:RNA)
# RNA: B1 RNA with G25A, U27A, G28A, U30G
# DNA 1: CAATCTGAATTCCGGTCTCCC
# DNA 2: TGGTGGCTACGACGGGATT
# B19: UAGAAGG (DNA:RNA)
# RNA: B2 RNA with A25U, C26A, C27G, U28A, G29A, C31G
# DNA 1: CAATCTGAATTCCGGTCTCCC
# DNA 2: TGGTGGCTACGACGGGATT
# B20: ACAAGGG (DNA:RNA)
# RNA: B2 RNA with C27A, U28A, C31G
# DNA 1: CAATCTGAATTCCGGTCTCCC
# DNA 2: TGGTGGCTACGACGGGATT
# B21: GCUAUCG (DNA:RNA)
# RNA: B1 RNA with A26C, G28A, C29U, U30C, U31G
# DNA 1: CAATCTGAATTCCGGTCTCCC
# DNA 2: TGGTGGCTACGACGGGATT
# B22: UCCCCAG (DNA:RNA)
# RNA: B2 RNA with A25U, U28C, G29C, G30A, C31G
# DNA 1: CAATCTGAATTCCGGTCTCCC
# DNA 2: TGGTGGCTACGACGGGATT
# B23: GUAAUGU (DNA:RNA)
# RNA: B1 RNA with A26U, U27A, G28A, C29U, U30G
# DNA 1: CAATCTGAATTCCGGTCTCCC
# DNA 2: TGGTGGCTACGACGGGATT
# B24: UUUUAGG (DNA:RNA)
# RNA: B2 RNA with A25U, C26U, C27U, G29A, C31G
# DNA 1: CAATCTGAATTCCGGTCTCCC
# DNA 2: TGGTGGCTACGACGGGATT
# B25: UUUCUUU (DNA:RNA)
# RNA: B1 RNA with G25U, A26U, G28C, C29U
# DNA 1: CAATCTGAATTCCGGTCTCCC
# DNA 2: TGGTGGCTACGACGGGATT
# B26: GACUACA (DNA:RNA)
# RNA: B2 RNA with A25G, C26A, G29A, G30C, C31A
# DNA 1: CAATCTGAATTCCGGTCTCCC
# DNA 2: TGGTGGCTACGACGGGATT
# B27: AACCUGU (DNA:RNA)
# RNA: B2 RNA with C26A, U28C, G29U, C31U
# DNA 1: CAATCTGAATTCCGGTCTCCC
# DNA 2: TGGTGGCTACGACGGGATT
# B28: UUCAGUU (DNA:RNA)
# RNA: B2 RNA with A25U, C26U, U28A, G30U, C31U
# DNA 1: CAATCTGAATTCCGGTCTCCC
# DNA 2: TGGTGGCTACGACGGGATT
# B29: ACACCCC (DNA:RNA)
# RNA: B2 RNA with C27A, U28C, G29C, G30C
# DNA 1: CAATCTGAATTCCGGTCTCCC
# DNA 2: TGGTGGCTACGACGGGATT
# B30: ACUUUCU (DNA:RNA)
# RNA: B2 RNA with C27U, G29U, G30C, C31U
# DNA 1: CAATCTGAATTCCGGTCTCCC
# DNA 2: TGGTGGCTACGACGGGATT
# B31: AACGCGA (DNA:RNA)
# RNA: B2 RNA with C26A, U28G, G29C, C31A
# DNA 1: CAATCTGAATTCCGGTCTCCC
# DNA 2: TGGTGGCTACGACGGGATT
# Molecular target: T1, RBFOX1 RRM RbFoxmut (Fox-RRM*)
# Test: EMSA; HiTS-Eq, 1 nM pool, 10 min; buffer printed only for the single-RNA assays: 10 mM Tris pH 7.5, 150 mM NaCl, 3.4 mM EDTA, 0.001% NP-40, 30 C
# Details: tags: His6 N-terminal (pET28a); label: 5' 32P
# Summary of the method: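 These values rest on relative association constants, computed from read-count changes of each RNA species versus the control reaction and normalised to the cognate motif. Reads came from free RNA recovered by 8% native PAGE after purified RbFox RRM (wild type or mutant) at increasing concentrations was equilibrated for 10 min in 50 µL with 1 nM of a 5′-radiolabelled pool with 7 randomized nucleotides and DNA-annealed flanks.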
row,Binder,binding signal
1,B1,0.0831 KA relative to UGCAUGU
2,B2,0.125 KA relative to UGCAUGU
3,B3,0.0842 KA relative to UGCAUGU
4,B4,0.136 KA relative to UGCAUGU
5,B5,0.0551 KA relative to UGCAUGU
6,B6,0.154 KA relative to UGCAUGU
7,B7,0.0808 KA relative to UGCAUGU
8,B8,0.0954 KA relative to UGCAUGU
9,B9,0.097 KA relative to UGCAUGU
10,B10,0.0769 KA relative to UGCAUGU
11,B11,0.0676 KA relative to UGCAUGU
12,B12,0.067 KA relative to UGCAUGU
13,B13,0.156 KA relative to UGCAUGU
14,B14,0.0953 KA relative to UGCAUGU
15,B15,0.0975 KA relative to UGCAUGU
16,B16,0.124 KA relative to UGCAUGU

row,Binder,binding signal
1,B17,0.158 KA relative to UGCAUGU
2,B18,0.0727 KA relative to UGCAUGU
3,B19,0.0839 KA relative to UGCAUGU
4,B20,0.0692 KA relative to UGCAUGU
5,B21,0.117 KA relative to UGCAUGU
6,B22,0.0984 KA relative to UGCAUGU
7,B23,0.154 KA relative to UGCAUGU
8,B24,0.0739 KA relative to UGCAUGU
9,B25,0.0817 KA relative to UGCAUGU
10,B26,0.0912 KA relative to UGCAUGU
11,B27,0.069 KA relative to UGCAUGU
12,B28,0.0816 KA relative to UGCAUGU
13,B29,0.0745 KA relative to UGCAUGU
14,B30,0.0605 KA relative to UGCAUGU
15,B31,0.0512 KA relative to UGCAUGU
